This list was built around the results that the source calls inconclusive (neither active nor inactive); the mix of calls is not that of the screen. For some of these results: No potency is given beside an inconclusive call; the fits are too rough. The source made the active and inactive calls. Calls come from the whole dose curve; as a rule, active = well fitted curve in the direction sought with a large enough effect; inconclusive = small, poorly fitted or top-dose-only effect, or another doubt; inactive = no such curve, though single readings can be large; an effect the other way counts as inactive or inconclusive.
Tests used:
[1] = qHTS of pediatric cancer cell lines to identify multiple opportunities for drug repurposing: Primary screen for Saos-2 cells (AID 1347097); settings: Saos-2 viability, CellTiter-Glo ATP luminescence, 48 h; activity change, negative = cytotoxic: at 46 µM (top of the series); note: nearly all actives have a fitted effect of over 40% in size; note: potency is the fitted concentration of half-maximal effect
Procedure, shortened: (§1)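 Luminescence from CellTiter-Glo served as readout of metabolically active cells after 48 h compound exposure. Titrations: MIPE 11-point, from 0.78 nM; NPC 8-point, from 0.59 nM (final). Concentration-response curves came straight from the primary screen.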

[2] = qHTS of pediatric cancer cell lines to identify multiple opportunities for drug repurposing: Primary screen for BT-12 cells (AID 1347101); settings: BT-12 viability, CellTiter-Glo luminescence, 48 h; series mostly up to 57.3 µM; note: nearly all actives have a fitted effect of over 25% in size; note: potency is the fitted concentration of half-maximal effect
Procedure, shortened: (§2)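 Cells (500-1,000/well) rested 5 h, then received compounds for 48 h; metabolically active cells were measured by CellTiter-Glo luminescence. Final concentrations spanned up to 46 µM (MIPE, 11-point) or 0.59 nM-46 µM (NPC, 8-point) in primary screens, 11-point in follow-ups.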

[3] = qHTS of pediatric cancer cell lines to identify multiple opportunities for drug repurposing: Primary screen for RD cells (AID 1347104); settings: RD rhabdomyosarcoma viability, CellTiter-Glo luminescence, 48 h; series mostly up to 46 µM; note: nearly all actives have a fitted effect of over 55% in size
Procedure, shortened: as §1

[4] = qHTS of pediatric cancer cell lines to identify multiple opportunities for drug repurposing: Primary screen for OHS-50 cells (AID 1347103); settings: OHS-50 osteosarcoma viability, CellTiter-Glo luminescence, 48 h; series mostly up to 57.3 µM; note: nearly all actives have a fitted effect of over 40% in size; note: potency is the fitted concentration of half-maximal effect
Procedure, shortened: as §2

[5] = qHTS of pediatric cancer cell lines to identify multiple opportunities for drug repurposing: Primary screen for LAN-5 cells (AID 1347100); settings: LAN-5 neuroblastoma viability, CellTiter-Glo luminescence, 48 h; activity change, negative = cytotoxic: at 46 µM (top of the series); note: potency is the fitted concentration of half-maximal effect
Procedure, shortened: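 Cells (500-1,000/well) in growth media were settled 5 h at 37 degrees C, then given compounds for 48 h. Viability was read as CellTiter-Glo luminescence. Primary runs used MIPE at 11 points (0.78 nM-46 µM) and NPC at 8 points (0.59 nM-46 µM); follow-ups used 11 points.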

[6] = qHTS of pediatric cancer cell lines to identify multiple opportunities for drug repurposing: Primary screen for NB1643 cells (AID 1347099); settings: NB1643 neuroblastoma viability, CellTiter-Glo luminescence, 48 h; series mostly up to 46 µM; note: nearly all actives have a fitted effect of over 50% in size
Procedure, shortened: as §1
Tags give direction and shape of the fitted curve.

## NCCCCCC(=O)O
[1]
  Potency: inconclusive [cytotoxic, partial curve]
[2]
  Potency: inactive

## O=C(O)C1=CO[C@@H](O[C@@H]2O[C@H](CO)[C@H](O)[C@H](O)[C@H]2O)[C@@H]2C(CO)=CC[C@H]12
[1]
  Potency: inconclusive [cytotoxic, partial curve]
[3]
  Potency: inactive

## CCCC(CCC)C(=O)O
[1]
  Potency: inconclusive [cytotoxic, partial curve, poor fit]
[4]
  Potency: inactive

## Cc1nc(C(=O)NCC(=O)O)c(O)c2ccc(Oc3ccccc3)cc12
[1]
  Potency: inconclusive [cytotoxic, single point]
[5]
  Potency: inactive

## CC(=O)OCC(CCn1cnc2cnc(N)nc21)COC(C)=O
[1]
  Potency: inconclusive [cytotoxic, single point]
[4]
  Potency: inactive

## CCN(CC)CCCC(C)Nc1nc(C)cc(Nc2ccc3nc(C)cc(N)c3c2)n1 (configuration not stated)
[1]
  Potency: inconclusive [cytotoxic, partial curve]
[2]
  Potency: inactive
[4]
  Potency: inconclusive [cytotoxic, partial curve]
[3]
  Potency: inactive

## NC(=O)c1ncn([C@@H]2O[C@H](CO)[C@@H](O)[C@@H]2O)c1N
[1]
  Potency: inconclusive [cytotoxic, partial curve]
[4]
  Potency: inactive

## CC1(C)CCC[C@@]2(C)[C@@H]1CC[C@@]1(C)OC(=O)C[C@H]21
[1]
  Potency: inconclusive [cytotoxic, partial curve]
[6]
  Potency: inactive
[2]
  Potency: inactive

## COc1cc(C)c(C=CC(C)=CC=CC(C)=CC(=O)O)c(C)c1C
[1]
  Potency: inactive
[5]
  Potency: inconclusive [cytotoxic, single point]
[2]
  Potency: inconclusive [cytotoxic, partial curve]

— PubChem BioAssay (NCATS)
